# The other results are listed elsewhere or left out. These are further read-outs of the screen, such as a control signal, another cell line or another target. No call is given for them.
# Tests used:
# Test in all cases: Primary Screen for Target Class Profiling of Small Molecule Inhibitors of Methyltransferases
# [1] = biological target: Glycine N-methyltransferase (Homo sapiens) (UniProt Q14749); settings: purified enzyme, MTase-Glo SAH luminescence; measured here: GNMT inhibition; at 40 µM; stronger effect = lower value
# Outline: (§1)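 Each enzyme was reacted with SAM and its substrate, with compounds tested once at 40 uM; SAH formed was read by MTase-Glo luminescence.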
# [2] = biological target: Guanidinoacetate N-methyltransferase (Homo sapiens) (UniProt Q14353); settings: purified enzyme, MTase-Glo SAH luminescence; measured here: GAMT inhibition; at 40 µM; stronger effect = lower value
# Outline: as §1
# [3] = biological target: Histamine N-methyltransferase (Homo sapiens) (UniProt P50135); settings: purified enzyme, MTase-Glo SAH luminescence; measured here: HNMT inhibition; at 40 µM; stronger effect = lower value
# Outline: as §1
# [4] = biological target: Nicotinamide N-methyltransferase (Homo sapiens) (UniProt P40261); settings: purified enzyme, MTase-Glo SAH luminescence; measured here: NNMT inhibition; at 40 µM; stronger effect = lower value
# Outline: as §1
# [5] = biological target: Phenylethanolamine N-methyltransferase (Homo sapiens) (UniProt P11086); settings: purified enzyme, MTase-Glo SAH luminescence; measured here: PNMT inhibition; at 40 µM; stronger effect = lower value
# Outline: as §1
# % is scaled to controls: 0 for no effect and ±100 for the full control effect.
Compound,"activity change, negative = inhibition [1] [%]","activity change, negative = inhibition [2] [%]","activity change, negative = inhibition [3] [%]","activity change, negative = inhibition [4] [%]","activity change, negative = inhibition [5] [%]"
COCCCNC(=O)C1(C)Cn2nc(-c3ccccc3)cc2C(=O)N1Cc1ccccc1Cl (stereo not drawn),1.47,0.19,3.15,4.23,-2.4
NC(=O)c1ccc2[nH]ccc2c1,-4.14,-0.982,-2.57,-13.3,-4
CCN(CC)c1nc2c(-c3ccc(F)cc3)nnn2c2ccccc12,-0.268,0,7.85,1.74,-2.76
Cc1c(-c2ccnc(Nc3cc(Br)cc(C(F)(F)F)c3)n2)sc(=O)n1C,–,-5.43,–,-0.329,-5.67
COCc1nnc2n1CCC(NC(=O)CCc1c(C)noc1C)CC2 (stereo not drawn),-5.62,-9.83,-5.32,-13.8,-9.6
CC(C)Cn1c(=O)c2ccc(C(=O)NC(C)C)cc2n2c(SCc3ccccc3F)nnc12,-1.12,2.71,-2.58,1.19,-3.58
CCCN1CCC=C(c2cc(-c3ccc(C)cc3)no2)C1,1.66,13.3,5.76,-6.49,2.15
COc1ccc(CNC(=O)c2cc3n(n2)CC(C)(C(=O)NCc2ccc(F)cc2)N(C)C3=O)c(OC)c1 (stereo not drawn),-5.81,-0.016,-9.03,-9.08,-1.64
CCc1cc2c(cc3n2CC(C)(C(=O)NC2CCCCCC2)N(CCc2ccccc2)C3=O)s1 (stereo not drawn),5.52,0.905,8.75,7.4,0.864
C=C1CCCC2(C)CCC(C(C)(C)OC3OC(C)C(O)C(O)C3OC(=O)/C(C)=C\C)CC12 (stereo not drawn),-3.39,4.11,11.3,-19,-9.41
OCCC#Cc1ccc(CN2CCC(CO)(Cc3ccccc3Cl)CC2)cc1,-2.5,-2.32,-20,-10.1,-14
O=C(N1CCCC1)N1CCCC(c2nnc3n2CCNC3)C1 (stereo not drawn),-2.45,-2.64,-3.34,-3.11,-3.58
Cn1nccc1CN1CC2(C1)C(=O)Nc1ccccc12,-7.69,0.521,-17.4,-2.08,-1.12
Cc1ccc(CNC(=O)C2(C)Cn3nc(C(=O)NCCCOC(C)C)cc3C(=O)N2C)cc1 (stereo not drawn),1.84,2.47,0.699,0.621,-1.16
O=C1C=CC2OC(c3ccccc3)C(O)C2O1 (stereo not drawn),4.06,3.17,10.7,-7.83,1.3
Cc1[nH]nc(CCC(=O)N2CC[C@@H](NC(=O)c3cnccn3)[C@H](O)C2)c1C,-3.92,-6.88,-3.97,-4.47,-3.46
CSc1ccc(CN2C(=O)c3cc4ccccc4n3CC2(C)C(=O)NCCCOC(C)C)cc1 (stereo not drawn),-0.205,2.54,2.9,-4.61,-1.77
O=C(Cn1ccc2cc(S(=O)(=O)N3CCCCC3)ccc21)NCc1cccc(Br)c1,-0.133,-0.27,2.89,-4.1,-3.82
CN(C)CCOCC1(C)COc2ccc(C(=O)Nc3ccc4[nH]ccc4c3)cc2N1 (stereo not drawn),-11.7,-9.43,-87.6,-9.42,-11.3
O=C(c1ccoc1)N1CCN(c2cc(C3CC3)ncn2)CC(O)C1 (stereo not drawn),-2.9,-4.78,-1.01,-7.09,-4.07
CN1C(=O)CCCCC1C(=O)NCCN1CCCCC1 (stereo not drawn),-9.57,-13.3,-9.01,-16.7,6.11
CC1(C(=O)NC2CCCCC2)Cn2nc(-c3ccco3)cc2C(=O)N1Cc1ccccc1F (stereo not drawn),-2.61,-1.85,4.27,5.09,0.852
O=C(NCc1cccnc1)c1ccc2c(=O)nc3c(-c4ccc(F)cc4)n[nH]n3c2c1,-2.31,-0.778,0.529,3.54,-5.41
CCCn1c(=O)c2ccc(C(=O)NC(C)CC)cc2n2c(=O)n(CC(=O)Nc3ccc(C)cc3)nc12 (stereo not drawn),1.27,3.77,0.832,-0.806,-2
CC1(C(=O)NC2CCCCCCC2)Cn2c(cc3sccc32)C(=O)N1Cc1ccccc1 (stereo not drawn),-9.54,-1.47,-3.37,-15.3,-6.26
